Data reported in PubChem BioAssay AID1508642 (National Center for Advancing Translational Sciences (NCATS), 2021).
About 200 (0.47%) of roughly 43,000 compounds were called active. Not shown: some 12% with an inconclusive outcome. The call rests on the fitted dose curve; in most records, active means well fitted cell-killing curve with a large enough effect; inconclusive means small, poorly fitted or top-dose-only effect, or effect the other way; inactive means flat fitted curve, though single readings scatter. Some of the results follow.

Assay: Cell viability qHTS assay in S16 Pmp22-F2sN cells; further: nearly all actives have a fitted effect of over 65% in size
Settings: S16 Pmp22-F2sN Schwann cells (luciferase reporters placed in the Pmp22 gene) viability, CellTiter-Glo, 24 h; series mostly up to 57.5 µM; activity change, negative = cytotoxicity: at the top concentration
Procedure, shortened: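 S16 Schwann cells carrying the Pmp22-F2sN reporter, seeded in 1536-well format, were exposed to library compounds for 24 h at 37C. Viability was read as CellTiter-Glo luminescence after 15 min at room temperature.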
On the % scale 0 is the no-effect control and ±100 the full control effect.

Compound	activity change, negative = cytotoxicity
Cn1c2ccccc2c2c(C(=O)N3CCN(c4ccc(F)cc4)CC3)cn(C3CCCCC3)c(=O)c21	inactive: -3.64%
COc1cc(Cl)c(C)cc1NC(=O)CSc1ncc(S(=O)(=O)c2ccc(C(C)(C)C)cc2)c(=O)[nH]1	inactive: -0.415%
O=C1Nc2ccc(S(=O)(=O)Nc3ccccc3O)c3cccc1c23	inactive: 2.04%
CCOc1ccccc1Nc1cc(-c2ccccc2)nc(C)n1	inactive: -3.21%
COc1ccc(NC(=O)CSc2nnc(-c3cccs3)o2)cc1	inactive: 0.703%
COc1cc(NC(=O)Cn2ncc3c([nH]c4ccc(C)cc43)c2=O)cc(OC)c1OC	inactive: -0.255%
COc1cc(C(=O)Nc2ccc3oc(-c4ccccc4)nc3c2)cc(OC)c1OC	inactive: -23.4%
CN(C(=O)CSc1nc2c(c(=O)[nH]1)CCCC2)c1ccccc1	inactive: -4.12%
CCOc1ccccc1NC(=O)C1CCN(S(=O)(=O)c2ccccc2)CC1	inactive: -3.86%
COc1ccc(-c2nc(SCC(=O)Nc3ccc4c(c3)OCO4)c(-c3ccc(OC)cc3)[nH]2)cc1	inactive: 3.1%
CCOc1ccc(S(=O)(=O)N2CCN(c3c(C)cccc3C)CC2)c2ccccc12	inactive: -1.51%
CC(NC(=O)Nc1ccccc1C(F)(F)F)c1c(-n2cccc2)sc2c1CCCC2 (centres undefined)	inactive: -17.6%
COc1ccccc1CNC(=O)Cn1ncc2c3ccccc3n(Cc3ccccc3C)c2c1=O	inactive: 9.57%
CCOC(=O)c1ccc(NS(=O)(=O)c2ccc(Br)s2)cc1	inactive: 0.349%
COc1ccccc1NC(=O)CSc1oc(-c2cccs2)nc1S(=O)(=O)c1ccc(Br)cc1	inactive: 2.77%
Cc1cc(C)cc(OC(=O)c2snnc2C)c1	inactive: -15.9%
O=C(Cc1ccccc1)Nc1sc2c(c1C(=O)Nc1ccc(Cl)cc1)CCCC2	inactive: -18.8%
O=C(NCCc1csc(-c2cccc(F)c2)n1)c1cccs1	inactive: 0.536%
Cc1cccc(NC(=O)CSc2nc3c([nH]c4ccccc43)c(=O)n2C)c1C	inactive: 16.9%
N#C/C(=C\c1ccc(Cl)cc1)c1nc2ccccc2[nH]1	inactive: 18.5%
O=C(NC1CCN(Cc2ccccc2)CC1)c1ccc(Cn2c(=O)c3ccccc3n(Cc3ccccc3)c2=O)cc1	inactive: 5.79%
Cc1ccc(-c2nc(-c3cc4cccc(OCc5cccc(C)c5)c4oc3=O)no2)cc1	inactive: -2.52%
CCOC(=O)c1ccc(NC(=O)c2ncn(-c3ccccc3)n2)cc1	inactive: 0.134%
COc1ccc(N2CCN(C(=O)CCn3c(=O)c4cccn4c4cccnc43)CC2)cc1	inactive: 7.62%
CC(NC(=O)Nc1cc(Cl)ccc1Cl)c1c(-n2cccc2)sc2c1CCCC2 (centres undefined)	inactive: -5.11%

Compound	activity change, negative = cytotoxicity
CCN(CC)c1ccc(C(=O)N2CCC(c3c[nH]c4ccccc34)(c3c[nH]c4ccccc34)CC2)cc1	inactive: -4.69%
Cc1ccc(CNC(=O)c2ccc(-n3cnc4cccnc43)cc2)cc1	inactive: -4.19%
CCc1ccc(NC(=O)Cn2c3ncccc3c(=O)n2-c2ccc(C)c(C)c2)cc1	inactive: 2.73%
Cc1ccc(NC(=O)/C(C#N)=C/c2cc(C)n(-c3ccc(F)cc3)c2C)cc1C	inactive: 16.4%
O=C(c1ccc2c(c1)N(Cc1ccccc1F)C(=O)c1ccccc1S2=O)N1CCN(c2ccccc2)CC1 (centres undefined)	inactive: 6.06%
CCc1c(C)nc2nncn2c1Nc1ccc(C(C)C)cc1	inactive: -6.59%
COc1cc(Nc2nc3ccccc3c3nnc(C)n23)cc(OC)c1	inactive: 4.85%
CCCCN1CCCc2cc(CN(CCCN3CCOCC3)C(=O)Nc3ccc(OCC)cc3)ccc21	inactive: -13.3%
COc1ccc(C)cc1Nc1c2c(nc3nc(-c4cccs4)nn13)CCCC2	inactive: -5.19%
COc1cccc(CN2CCc3nc(SCC(=O)Nc4ccccc4)[nH]c(=O)c3C2)c1	inactive: 7.82%
Cc1ccccc1NS(=O)(=O)c1nnc(NC(=O)c2ccccc2C)s1	inactive: -8.04%
O=S(=O)(NCCS(=O)(=O)N1CCN(c2ccccc2F)CC1)c1ccc(Cl)cc1	inactive: 17.9%
Cc1ccc(NC(=O)N2CCc3cc(S(=O)(=O)N4CCC(C)CC4)ccc32)cc1C	inactive: -3.1%
CCOC(=O)c1ccc(Nc2ncnc3c2cnn3-c2cccc(Cl)c2)cc1	inactive: 4.64%
CCN(C(=O)c1cc2c(s1)-c1ccccc1OC2)c1cc(Cl)ccc1OC	inactive: -25%
Cc1ccccc1-c1nc(CS(=O)(=O)CC(=O)NCc2cccc(Cl)c2)c(C)o1	inactive: 25.3%
Cc1ccc(N2CC(C(=O)Nc3ccc(Br)cc3)CC2=O)cc1 (centres undefined)	inactive: -12.5%
COc1ccc(-n2ncc3c(NCCC4=CCCCC4)ncnc32)cc1	inactive: -0.365%
C=Cc1ccc(CN2C(=O)N(c3cccc(Cl)c3)S(=O)(=O)c3ccccc32)cc1	inactive: 6.42%
COc1ccc(C(=O)n2nc(-c3ccco3)nc2NCc2cccs2)cc1	inactive: -1.48%
COc1ccccc1C(=O)NCCn1cc(SCc2ccccc2Cl)c2ccccc21	inactive: 22.9%
COc1ccccc1C(=O)Nc1nc(-c2ccccc2)ns1	inactive: 7.23%
CCc1ccc(-c2nn(CC(=O)NC3CCCC3)c3c2cnc2ccc(F)cc23)cc1	inactive: 17.7%
COC(=O)c1ccccc1NC(=O)Cn1nnc2sc(-c3ccccc3)cc2c1=O	inactive: -0.432%
